# Test results reported in the supplement of paper PMC11417369.
# The other results are listed elsewhere or left out.
# Tested on: PfHDP1 homeodomain (GST-tagged)
# Assay: gcPBM binding intensity (ln(normalized median fluorescence intensity)); higher = stronger DNA binding
# Method in brief: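 Binding intensity values are the highest Masliner-normalised natural-log median intensity among replicate spots of either probe orientation. The binding step lasted 1 h in 1× PBS with 1% milk, 0.2 mg/ml BSA, 0.5% salmon testes DNA and 0.03% Triton X-100, using GST-tagged P. falciparum DNA-binding domains expressed in E. coli on an Agilent 4 × 180k array of primer-extended double-stranded 36-bp intergenic genomic probes plus negative controls. Alexa488 anti-GST antibody and a 488 nm scan detected bound protein.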
row,Sequence,gcPBM binding intensity (ln)
1,GTTCAATCGGGTGTTACTTCAAACAAGGAACAACAA [TGCATGCA_negctrl_site471],6.16
2,ACTTGACACCAACACACACACATATATAAAAAAAAA [CACACA_site756],7.08
3,TATTTTATTGTTGTTATACACACCATATAAAATATT [CACACA_site1630],6.68
4,AATATTTTAAATATTGCATGCAATGAAAAATGTAAA [TGCATGCA_site139],7.73
5,TTTTAAAGAAAATATTTTATCATTATTTTTTGTACT [CACACA_negctrl_site1648],6.23
6,TCTTATTTTTTTATATATACAAAGTTTTATATATAT [GTGCAC_negctrl_site314],6.73
7,AACATATATTAGCTTACATGCAAAAAGTAAAAAAAT [TGCATGCA_site10],6.9
8,ATATATATATATGCATGTACATATTTATCTTTATAT [XGTACX_site232],9.17
9,AAAACATCAAAAATGTGTACATATATATATATATAT [XGTACX_site8884],9.36
10,AATTTAAAACGGAGATGTACATATATAAATATATAC [XGTACX_site3723],6.14
11,TATATATCTGTGAAAATACTTAAATTGTTATAAAAA [CACACA_negctrl_site1109],6.06
12,CGGCTATTTCTATATACATGCATTTAAAAAAAAAAT [TGCATGCA_site354],6.41
13,ACCTATTTCAAACACACACACACACTAACAAACATA [CACACA_site8233],7.24
14,AAAAAAAAAATGAGCACACATAAATAAAAACAAACA [CACACA_site1573],7.39
15,CTAATCGTGCACAACTGTACATTTGTCAAGGGCAAT [XGTACX_site8662],10.8
16,ATGTGAACATTCAATGCACACGATGTAATTATACAT [CACACA_site15],9.65
17,TTTTTAATATATATCACACATATATATTTTTAATTA [CACACA_site6099],6.44
18,ATAAAAATCTTTAGTAGTACATTATAAAAAACTATT [XGTACX_site5531],6.31
19,TATACAATATATATAACACACATATTTATATAAAAT [CACACA_site5061],6.58
20,ACAAATCTATAAGAGTGTACGAACAGTAAAGGAATT [XGTACX_site2070],7.15
21,AACATAAAAATTGAAGCACACACACTAATGAAATAC [CACACA_site8287],7.19
22,AAAATACCATTTGAAACACACAAAAAAAAAAAAAAT [CACACA_site2981],6.26
23,CAGTTGGAAGGAAAGTGTACATAAAAAAAAATATAA [XGTACX_site8784],6.69

row,Sequence,gcPBM binding intensity (ln)
1,ATAAAAATTAAAAGGAGTACTTAAATATTAAGATGG [XGTACX_site4815],6.54
2,TTTAAAAATATATATTGTACATATATATATCTATGA [XGTACX_site3556],6.35
3,TTTATTTAAAAAATAAAAAAAAAAAAAAAAAAAAAA [CACACA_negctrl_site1670],6.17
4,TACTATTTAAAATTTGAACACACATTATTTATTTTA [CACACA_site9020],6.32
5,AGTTATTTTAAATGTAGTACACAAAAGAAATATTAA [XGTACX_site4092],6.66
6,CATAAATTAAAACACACACACACAAAAAAAAAAAAA [CACACA_site2262],6.73
7,ATATTATATATATACACACACACATGCATGCACATA [CACACA_site7917],10
8,TATTTTCTCGTTTGCATGCACCTTATTTTATGTGGT [GTGCAC_site9470],9
9,TAAAATTTGCGATGCACACAGAATAGCTAATATGAC [CACACA_site2995],8.5
10,TACTAAAACCCATACACACACATATTTATAGTACCA [CACACA_site7484],6.77
11,AAATTCTGCATCGAGGTGCGCCATAAAAATTGTGGT,7.38
12,CATATATATTTTATATGTACATATATATTTTATATA [XGTACX_site8665],6.35
13,ATATATATTTAAAACGCATGCCTTGTTATATATATA [TGCATGCA_site624],6.97
14,ATTACAAAAATATATAAACACACAAATATAATATAT [CACACA_site8962],6.9
15,TAGATATATAGAATTACACACTTTTCTATAATATGA [CACACA_site6475],6.11
16,ATATATATTATAATAACACACATATATTATATTATA [CACACA_site406],6.52
17,TATATATATAAATGAATGCACTTTAGAAAAAAGTAC,7.93
18,ATAAAATAAAACAACACACACGAATGTATAAATATA [CACACA_site4643],6.7
19,TAATAATATAAATATGCACACAAATTATTACCCAAA [CACACA_site8805],9.53
20,AATAAAATACAAAAATGTACAAATATAATATACATA [XGTACX_site279],6.08
21,ACATACTCAAATAGCACACACATAAATAAAAATGTA [CACACA_site3864],7.77
22,TAATATAAAATGATAAATGAATGTGATCATTTTATA [CACACA_negctrl_site1034],6.05
